From the DeepSol protein solubility set

Assay: soluble on expression in E. coli; label from the status in PepcDB or PDB records

## MKISVITVTYNNAEGLEKTLSSLSILKIKPFEIIIVDGGSTDGTNRVISRFTSMNITHVYEKDEGIYDAMNKGRMLAKGDLIHYLNAGDSVIGDIYKNIKEPCLIKVGLFENDKLLGFSSITHSNTGYCHQGVIFPKNHSEYDLRYKICADYKLIQEVFPEGLRSLSLITSGYVKYDMGGVSSKKRILRDKELAKIMFEKNKKNLIKFIPISIIKILFPERLRRVLRKMQYICLTLFFMKNSSPYDNE
  soluble on expression in E. coli: not soluble
